# This is one part of the list.
# How the values were obtained:
# Assay in all cases: glycan array binding signal (z-score within array); higher = stronger binding
# Conditions in all cases: glycan notation: IUPAC condensed, linker removed
# [1] = biological target: Gal(b1-4)GlcNAc(b1-3)Gal(b1-4)GlcNAc(b1-3)Gal(b1-4)GlcNAc(b1-3)Gal(b1-4)GlcNAc(b1-2)Man(a1-3)[Gal(b1-4)GlcNAc(b1-3)Gal(b1-4)GlcNAc(b1-3)Gal(b1-4)GlcNAc(b1-3)Gal(b1-4)GlcNAc(b1-2)Man(a1-6)]Man(b1-4)GlcNAc(b1-4)[Fuc(a1-6)]GlcNAc
# Outline: (§1)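 The binding signal is a Z-score computed within each array. Data were drawn from 3228 arrays in the Consortium for Functional Glycomics database, restricted to those with a known protein sequence. Scores were averaged over arrays of the same protein sequence at different concentrations or buffers, and over linkers, and negative values can be taken as non-binding.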
# [2] = biological target: Gal(b1-4)GlcNAc(b1-3)Gal(b1-4)GlcNAc(b1-3)Gal(b1-4)GlcNAc(b1-3)Gal(b1-4)GlcNAc(b1-2)[Gal(b1-4)GlcNAc(b1-3)Gal(b1-4)GlcNAc(b1-3)Gal(b1-4)GlcNAc(b1-3)Gal(b1-4)GlcNAc(b1-6)]Man(a1-6)[Gal(b1-4)GlcNAc(b1-3)Gal(b1-4)GlcNAc(b1-3)Gal(b1-4)GlcNAc(b1-3)Gal(b1-4)GlcNAc(b1-2)Man(a1-3)]Man(b1-4)GlcNAc(b1-4)[Fuc(a1-6)]GlcNAc
# Outline: as §1
# [3] = biological target: Gal(b1-4)GlcNAc(b1-3)Gal(b1-4)GlcNAc(b1-3)Gal(b1-4)GlcNAc(b1-3)Gal(b1-4)GlcNAc(b1-3)Gal(b1-4)GlcNAc(b1-2)Man(a1-3)[Gal(b1-4)GlcNAc(b1-3)Gal(b1-4)GlcNAc(b1-3)Gal(b1-4)GlcNAc(b1-3)Gal(b1-4)GlcNAc(b1-3)Gal(b1-4)GlcNAc(b1-2)Man(a1-6)]Man(b1-4)GlcNAc(b1-4)GlcNAc
# Outline: as §1
# [4] = biological target: Gal(b1-4)GlcNAc(b1-3)Gal(b1-4)GlcNAc(b1-3)Gal(b1-4)GlcNAc(b1-3)Gal(b1-4)GlcNAc(b1-3)Gal(b1-4)GlcNAc(b1-2)Man(a1-3)[Gal(b1-4)GlcNAc(b1-3)Gal(b1-4)GlcNAc(b1-3)Gal(b1-4)GlcNAc(b1-3)Gal(b1-4)GlcNAc(b1-3)Gal(b1-4)GlcNAc(b1-2)Man(a1-6)]Man(b1-4)GlcNAc(b1-4)[Fuc(a1-6)]GlcNAc
# Outline: as §1
# [5] = biological target: Gal(b1-4)GlcNAc(b1-3)Gal(b1-4)GlcNAc(b1-3)Gal(b1-4)GlcNAc(b1-3)Gal(b1-4)GlcNAc(b1-3)Gal(b1-4)GlcNAc(b1-2)[Gal(b1-4)GlcNAc(b1-3)Gal(b1-4)GlcNAc(b1-3)Gal(b1-4)GlcNAc(b1-3)Gal(b1-4)GlcNAc(b1-3)Gal(b1-4)GlcNAc(b1-6)]Man(a1-6)[Gal(b1-4)GlcNAc(b1-3)Gal(b1-4)GlcNAc(b1-3)Gal(b1-4)GlcNAc(b1-3)Gal(b1-4)GlcNAc(b1-3)Gal(b1-4)GlcNAc(b1-2)Man(a1-3)]Man(b1-4)GlcNAc(b1-4)[Fuc(a1-6)]GlcNAc
# Outline: as §1
# [6] = biological target: Gal(b1-4)GlcNAc(b1-3)Gal(b1-4)GlcNAc(b1-3)Gal(b1-4)GlcNAc(b1-3)Gal(b1-4)GlcNAc(b1-3)Gal(b1-4)GlcNAc(b1-3)Gal(b1-4)GlcNAc(b1-2)Man(a1-3)[Gal(b1-4)GlcNAc(b1-3)Gal(b1-4)GlcNAc(b1-3)Gal(b1-4)GlcNAc(b1-3)Gal(b1-4)GlcNAc(b1-3)Gal(b1-4)GlcNAc(b1-3)Gal(b1-4)GlcNAc(b1-2)Man(a1-6)]Man(b1-4)GlcNAc(b1-4)GlcNAc
# Outline: as §1
# [7] = biological target: Gal(b1-4)GlcNAc(b1-3)Gal(b1-4)GlcNAc(b1-3)GalNAc
# Outline: as §1
# [8] = biological target: Gal(b1-4)GlcNAc(b1-3)Gal(b1-4)GlcNAc(b1-3)[Gal(b1-4)GlcNAc(b1-3)Gal(b1-4)GlcNAc(b1-6)]GalNAc
# Outline: as §1
# [9] = biological target: Gal(b1-4)GlcNAc(b1-3)Gal(b1-4)GlcNAc(b1-6)[Gal(b1-3)]GalNAc
# Outline: as §1
# [10] = biological target: Gal(b1-4)GlcNAc(b1-3)Gal(b1-4)[Fuc(a1-3)]GlcNAc(b1-3)Gal(b1-4)[Fuc(a1-3)]GlcNAc
# Outline: as §1
# [11] = biological target: Gal(b1-4)GlcNAc(b1-3)GalNAc
# Outline: as §1
# [12] = biological target: Gal(b1-4)GlcNAc(b1-3)[Fuc(a1-3)GlcNAc(b1-6)]Gal(b1-4)Glc
# Outline: as §1
# [13] = biological target: Gal(b1-4)GlcNAc(b1-3)[Gal(b1-4)GlcNAc(b1-6)]Gal(b1-4)GlcNAc
# Outline: as §1
# [14] = biological target: Gal(b1-4)GlcNAc(b1-3)[GlcNAc(b1-6)]Gal(b1-4)GlcNAc
# Outline: as §1
# [15] = biological target: Gal(b1-4)GlcNAc(b1-6)Gal(b1-4)GlcNAc
# Outline: as §1
# [16] = biological target: Gal(b1-4)GlcNAc(b1-6)GalNAc
# Outline: as §1
# [17] = biological target: Gal(b1-4)GlcNAc(b1-6)[Gal(b1-3)]GalNAc
# Outline: as §1
# [18] = biological target: Gal(b1-4)GlcNAc(b1-6)[Gal(b1-4)GlcNAc(b1-3)]GalNAc
# Outline: as §1
# Gal(b1-4)GlcNAc6P = biological target: Gal(b1-4)GlcNAc6P
# Outline: as §1
# Gal(b1-6)Gal = biological target: Gal(b1-6)Gal
# Outline: as §1
# Gal3S(b1-3)GalNAc = biological target: Gal3S(b1-3)GalNAc
# Outline: as §1
# Gal3S(b1-3)GlcNAc = biological target: Gal3S(b1-3)GlcNAc
# Outline: as §1
# [19] = biological target: Gal3S(b1-3)[Fuc(a1-4)]GlcNAc
# Outline: as §1
# Gal3S(b1-4)Glc = biological target: Gal3S(b1-4)Glc
# Outline: as §1
# Gal3S(b1-4)Glc6S = biological target: Gal3S(b1-4)Glc6S
# Outline: as §1
# Gal3S(b1-4)GlcNAc = biological target: Gal3S(b1-4)GlcNAc
# Outline: as §1
# [20] = biological target: Gal3S(b1-4)[Fuc(a1-3)]Glc6S
# Outline: as §1
# [21] = biological target: Gal3S(b1-4)[Fuc(a1-3)]GlcNAc
# Outline: as §1
# [22] = biological target: Gal3S(b1-4)[Fuc(a1-3)]GlcNAc6S
# Outline: as §1
# Gal3S4S(b1-4)GlcNAc = biological target: Gal3S4S(b1-4)GlcNAc
# Outline: as §1
# Gal3S6S(b1-4)GlcNAc = biological target: Gal3S6S(b1-4)GlcNAc
# Outline: as §1
# Gal3S6S(b1-4)GlcNAc6S = biological target: Gal3S6S(b1-4)GlcNAc6S
# Outline: as §1
# Gal4S(b1-4)GlcNAc = biological target: Gal4S(b1-4)GlcNAc
# Outline: as §1
# Gal4S6S(b1-4)GlcNAc = biological target: Gal4S6S(b1-4)GlcNAc
# Outline: as §1
# Gal6P(b1-4)GlcNAc = biological target: Gal6P(b1-4)GlcNAc
# Outline: as §1
# Gal6S(b1-3)GlcNAc = biological target: Gal6S(b1-3)GlcNAc
# Outline: as §1
# Gal6S(b1-3)GlcNAc6S = biological target: Gal6S(b1-3)GlcNAc6S
# Outline: as §1
# Gal6S(b1-4)Glc = biological target: Gal6S(b1-4)Glc
# Outline: as §1
binder,measurement,setting,value
diCBM40 CPF071 (Clostridium perfringens) (protein) MAHHHHHHVGTGSNDDDDKSPDPMLSSLGEYKDINLESSNASNITYDLEKYKNLDEGTIVVRFNSKDSKIQSLLGISNSKTKNGYFNFYVTNSRVGFELRNQKNEGNTQNGTENLVHMYKDVALNDGDNTVALKIEKNKGYKLFLNGKMIKEVKDTNTKFLNNIENLDSAFIGKTNRYGQSNEYNFKGNIGFMNIYNEPLGDDYLLSKTGETKALNGSELGSGSGLSSLGEYKDINLESSNASNITYDLEKYKNLDEGTIVVRFNSKDSKIQSLLGISNSKTKNGYFNFYVTNSRVGFELRNQKNEGNTQNGTENLVHMYKDVALNDGDNTVALKIEKNKGYKLFLNGKMIKEVKDTNTKFLNNIENLDSAFIGKTNRYGQSNEYNFKGNIGFMNIYNEPLGDDYLLSKTGETK,glycan array binding signal (z-score),[1],0.079
same,glycan array binding signal (z-score),[2],0.617
same,glycan array binding signal (z-score),[3],-0.231
same,glycan array binding signal (z-score),[4],-0.223
same,glycan array binding signal (z-score),[5],0.352
same,glycan array binding signal (z-score),[6],-0.254
same,glycan array binding signal (z-score),[7],-0.333
same,glycan array binding signal (z-score),[8],-0.29
same,glycan array binding signal (z-score),[9],-0.304
same,glycan array binding signal (z-score),[10],-0.308
same,glycan array binding signal (z-score),[11],-0.315
same,glycan array binding signal (z-score),[12],-0.294
same,glycan array binding signal (z-score),[13],-0.222
same,glycan array binding signal (z-score),[14],-0.349
same,glycan array binding signal (z-score),[15],-0.333
same,glycan array binding signal (z-score),[16],-0.002
same,glycan array binding signal (z-score),[17],0.586
same,glycan array binding signal (z-score),[18],-0.295
same,glycan array binding signal (z-score),Gal(b1-4)GlcNAc6P,-0.237
same,glycan array binding signal (z-score),Gal(b1-6)Gal,0.363
same,glycan array binding signal (z-score),Gal3S(b1-3)GalNAc,-0.333
same,glycan array binding signal (z-score),Gal3S(b1-3)GlcNAc,-0.334
same,glycan array binding signal (z-score),[19],-0.331
same,glycan array binding signal (z-score),Gal3S(b1-4)Glc,-0.324
same,glycan array binding signal (z-score),Gal3S(b1-4)Glc6S,-0.327
same,glycan array binding signal (z-score),Gal3S(b1-4)GlcNAc,-0.257
same,glycan array binding signal (z-score),[20],0.268
same,glycan array binding signal (z-score),[21],-0.338
same,glycan array binding signal (z-score),[22],-0.262
same,glycan array binding signal (z-score),Gal3S4S(b1-4)GlcNAc,-0.198
same,glycan array binding signal (z-score),Gal3S6S(b1-4)GlcNAc,-0.139
same,glycan array binding signal (z-score),Gal3S6S(b1-4)GlcNAc6S,-0.172
same,glycan array binding signal (z-score),Gal4S(b1-4)GlcNAc,-0.224
same,glycan array binding signal (z-score),Gal4S6S(b1-4)GlcNAc,-0.309
same,glycan array binding signal (z-score),Gal6P(b1-4)GlcNAc,-0.249
same,glycan array binding signal (z-score),Gal6S(b1-3)GlcNAc,-0.253
same,glycan array binding signal (z-score),Gal6S(b1-3)GlcNAc6S,-0.337
same,glycan array binding signal (z-score),Gal6S(b1-4)Glc,-0.119
